# Experimental data from PubChem BioAssay AID686979 (National Center for Advancing Translational Sciences (NCATS), 2013).
# The whole screen tested about 420,000 compounds, of which about 50,000 (12%) were called active. Inconclusive means that the source gave no clear call. Such entries were picked first, then a sample of the others. The call rests on the fitted dose curve; in most records, active means well fitted inhibition curve with a large enough effect; inconclusive means small, poorly fitted or top-dose-only effect; inactive means flat fitted curve, though single readings scatter. No potency is given beside an inconclusive call; the fits are too rough.
# Assay: qHTS for Inhibitors of human tyrosyl-DNA phosphodiesterase 1 (TDP1): qHTS in cells in presence of CPT; further: nearly all actives have a fitted effect of over 55% in size
# Conditions: chicken DT40 Tdp1-/-;hTDP1 cells + 20 nM CPT, ATP luminescence, 48 h; activity change, negative = growth inhibition: at 46.2 µM (top of the series) unless noted
# How it was run: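 Chicken DT40 Tdp1-/- cells complemented with human TDP1, 400 cells/well, exposed to compounds plus 20 nM camptothecin for at least 48 h at 37 C; viability read as ATP content by CellTiter-Glo luminescence.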
# On the % scale 0 is the no-effect control and ±100 the full control effect; potency means the concentration at half of the fitted maximal effect; tags describe the fitted curve by direction and shape.
Compound,"activity change, negative = growth inhibition",Potency
NC1(C(=O)O)CCc2cc(C(=O)O)ccc21 (centres undefined),inconclusive: -31.5% [inhibitor],–
CCCn1c(N)c(C(=O)CSc2nc3ncc(Cl)cc3[nH]2)c(=O)[nH]c1=O,–,inactive
COc1ccc(NC(=O)c2ccc(-n3c(C)ccc3C)cc2)c(OC)c1,–,"inconclusive [inhibitor, single point]"
COc1ccc(NC(=O)C2CCCN(S(=O)(=O)c3ccc(Br)s3)C2)cc1 (centres undefined),–,"inconclusive [inhibitor, single point]"
CCOC(=O)c1cnc2ccc(Br)cc2c1NCCCN1CCOCC1,–,"inconclusive [inhibitor, single point]"
COc1ccc(NC(=O)c2cccc(NC3=NC4CS(=O)(=O)CC4S3)c2)cc1Cl (centres undefined),–,inactive
O=C(c1ccc2oc(Cc3ccc(Cl)cc3)nc2c1)N1CCCCC1CCO (centres undefined),–,"inconclusive [inhibitor, single point]"
CCCCCCCCCCC(CO)CCCCCCCC (centres undefined),–,inactive
CCOC(=O)c1c(C)[nH]c(C)c1S(=O)(=O)N(C)CC(=O)N1CCN(c2ccc(OC)cc2)CC1,–,inactive
COc1ccc(CC(=O)NCC(c2cccs2)S(=O)(=O)c2ccc(C)cc2)cc1 (centres undefined),–,"inconclusive [inhibitor, single point]"
C=CCn1c(SCC(=O)N2CCC(C)CC2)nc2c([nH]c3ccccc32)c1=O,–,"inconclusive [inhibitor, single point]"
Cc1c(N)cc(C(=O)N2CCOCC2)cc1[N+](=O)[O-],–,"inconclusive [inhibitor, partial curve, poor fit]"
COc1ccccc1CNc1ncnc2ccc(-c3ccc(C(=O)N(C)C)cc3)cc12,–,"inconclusive [inhibitor, single point]"
Cc1cc(NC(=O)CSc2nnc(-c3cccc(Cl)c3)o2)no1,–,"inconclusive [inhibitor, single point]"
COc1cc(OC)cc(C(=O)N[C@H](C(=O)NC2CCCc3ccccc32)C(C)C)c1 (some centres undefined),–,"inconclusive [inhibitor, single point]"
Nc1c(C(=O)Nc2ccccc2)sc2nc(N3CCOCC3)c3c(c12)CCCC3,–,"inconclusive [inhibitor, single point]"
Cn1c(NCc2ccccc2)nc2c1c(=O)n(Cc1ccc(Br)cc1)c(=O)n2C,–,"inconclusive [inhibitor, single point]"
COc1cccc(NC(=O)C2(C)CCN2Cc2ccc(OC)c3ccccc23)c1 (centres undefined),–,"inconclusive [inhibitor, single point]"
O=P(COCCCCCOCP(=O)(c1ccccc1)c1ccccc1)(c1ccccc1)c1ccccc1,–,active: 16.4 µM
N/C(=N\OC(=O)Cc1ccc(Cl)cc1)c1ccncc1,–,inactive
O=C(NCc1cccs1)c1ccc(CSc2nc3cccnc3n2Cc2ccccc2F)cc1,–,"inconclusive [inhibitor, single point]"
CN(C(=O)COC(=O)CNC(=O)c1ccc2ccccc2c1)c1c(N)n(Cc2ccccc2)c(=O)[nH]c1=O,–,inactive

Compound,"activity change, negative = growth inhibition",Potency
O=C1CC(Sc2ncccn2)C(=O)N1c1ccccc1 (centres undefined),–,active: 14.1 µM
COc1cc(NC(=O)C2CCCN(c3ncnc4c3nc3n4CCCCC3)C2)cc(OC)c1OC (centres undefined),–,"inconclusive [inhibitor, single point]"
COc1ccc(/C=C/C(=O)Nc2ccc(N3CCOCC3)cc2)cc1,–,inactive
CCOc1ccc(S(=O)(=O)N2CCN(CCNS(=O)(=O)c3ccc(C)cc3)CC2)cc1,–,inactive
Cc1cccc(NC(=S)Nc2ccccn2)c1,–,"inconclusive [inhibitor, single point]"
O=[N+]([O-])c1cc(S(=O)(=O)C(F)(F)F)ccc1N1CCN(c2ccccc2)CC1,–,"inconclusive [inhibitor, single point]"
O=c1[nH]c(C2CCN(S(=O)(=O)c3ccc(S(=O)(=O)NC4CC4)cc3)CC2)nc2c1nnn2Cc1cccc(F)c1,–,active: 16.4 µM
CC(C)c1ccc(NC(=O)CN2C(=O)COc3ccc(S(=O)(=O)N4CCCCCC4)cc32)cc1,–,active: 2.59 µM
CCNC(=O)COC(=O)c1cc(-c2ccco2)nc2ccccc12,–,"inconclusive [inhibitor, single point]"
CCCn1c(CN2CCN(c3cccc(Cl)c3)CC2)nc2c1c(=O)n(C)c(=O)n2C,–,active: 5.8 µM
OCCNc1ncnc2ccc(Br)cc12,–,"inconclusive [inhibitor, partial curve]"
CCOc1ccccc1C(=O)N(CN1CCCC1=O)c1cccc(Cl)c1,–,active: 14.6 µM
c1ccc(CNc2nc(-c3cccs3)nc3ccccc23)cc1,–,"inconclusive [inhibitor, single point]"
Cc1ccc(NS(=O)(=O)c2cccc(C(=O)NCC(c3ccco3)N3CCCC3)c2)cc1 (centres undefined),–,"inconclusive [inhibitor, single point]"
CCCC(=O)NC(c1ccccc1)c1c(O)ccc2ccccc12 (centres undefined),–,"inconclusive [inhibitor, single point]"
O=C(O)C1CC=CCC1C(=O)N1CCN(c2nc(-c3ccccc3Cl)c3cc(Br)ccc3n2)CC1 (centres undefined),–,inactive
O=C(NCc1cccc(Cl)c1)c1ccc2nc(N3CCCCC3)sc2c1,–,"inconclusive [inhibitor, single point]"
COc1ccc(-c2csc3ncnc(N4CCN(S(=O)(=O)c5cccs5)CC4)c23)cc1,–,"inconclusive [inhibitor, single point]"
Cc1oc(-c2ccccc2Cl)nc1CSc1nc2ncccc2[nH]1,–,"inconclusive [inhibitor, single point]"
OCC(CO)c1cnnc2ccccc12,–,inactive
O=C(COc1ccccc1[N+](=O)[O-])N(Cc1cccc(Br)c1)C1CCS(=O)(=O)C1 (centres undefined),–,"inconclusive [inhibitor, single point]"
Clc1ccc(Cn2c(/C=C/c3ccco3)nc3ccccc32)cc1,–,"inconclusive [inhibitor, single point]"
